Assay results as given in the supplement of paper PMC11417369.
This is one part of the list.

system: PfSIP2 AP2 domain 1 (GST-tagged); assay: gcPBM binding intensity (ln(normalized median fluorescence intensity)); higher = stronger DNA binding
Summary of the method: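 Binding intensity is defined as the maximum Masliner-normalised natural-log median intensity across replicate spots for either probe orientation. It was measured on an Agilent 4 × 180k array of primer-extended double-stranded 36-bp intergenic genomic probes and negative controls, to which GST-tagged P. falciparum DNA-binding domains made in E. coli were applied for 1 h in 1× PBS with 1% milk, 0.2 mg/ml BSA, 0.5% salmon testes DNA and 0.03% Triton X-100. Detection was by Alexa488 anti-GST antibody and scanning at 488 nm.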

Sequence | gcPBM binding intensity (ln)
TTATTAAAGTATAACTGTACATGCGAGTAAAAGAAT [XGTACX_site7388] | 7.83
TGTTCTAATATTTGTTGTACATTTACATTTCTCTCT [XGTACX_site2585] | 7.13
ATAATAGAAACAAACAGTACACATACCTAAAAGGAA [XGTACX_site8647] | 7.08
ATTTACATAAACGTCTGTACTAATATACAATTTTCT [XGTACX_site1700] | 7.02
TATATATAGAAACACACACACATATATATATATATT [CACACA_site4115] | 7.49
CATAAAATTGTATTTTGTACACATTTTGTATACATT [XGTACX_site5705] | 6.75
TGGTTTATTTATTAAGTGCATAAATGCAATATATAT | 8.32
TATTATATATTTAATAGTACATATAAAATAATAAGG [XGTACX_site4823] | 7.04
TATACAGATGGACACACACACATAAATAAATATATA [CACACA_site4863] | 7.16
TTTATTTTTAACAGTGCACACATAACTTAATTATAT [CACACA_site8681] | 10.5
TACTATAACCCACATACACACAAAAAAAAAAAAAAA [CACACA_site4454] | 7.11
TATAAATATGTATATGCATGTGGAATATATAATTAA [TGCATGCA_site226] | 7.17
AAATAAAACAGACACACACACACATACACAAAAAAA [CACACA_site7753] | 7.17
ATATGAGTATAAAAATGTACGGAGCAACTAAATATA [XGTACX_site620] | 7.04
ATTACAACCACATTGACATGCAAATGTAGAGGGGGA [TGCATGCA_site694] | 8.02
TGTCACCTATTTTTTTGTACGTATGTCCATTTTTTT [XGTACX_site4368] | 7.11
TTTATGTAATATACATGTACAGAATATAAAATATAT [XGTACX_site6906] | 7.17
AAAAAATATAGATGCACACACAAAAAAACAAATTAA [CACACA_site6718] | 7.57
TTAACTTCTTTAAAATGTACATATATTAAATAATAA [XGTACX_site3391] | 7.05
TATTCTTACATCACCTCACACATTTAATATTCCTTA [CACACA_site4693] | 7.18
GTATTATTATTTTATGCATGTACATTGAATTATATT [TGCATGCA_site34] | 7.2
AGATTTTGAAATTATAAAAAAATTTCACTTCATTTA [CACACA_negctrl_site888] | 6.4
ATATATATATATCAGAGTACATTCTTTAAAATATAT [XGTACX_site5915] | 9.3

Sequence | gcPBM binding intensity (ln)
ATTGTTTTGTAATATGAAAAAATTGTGTAATGTGTC [CACACA_negctrl_site1510] | 7.61
TATTATATTATACATACACACCCATATAATATGTTT [CACACA_site8191] | 7.12
AAATTCGTAATAATGTGTACATAACTATACATAATT [XGTACX_site1717] | 7.08
AAAAAATAGAATATGGGTACTAAAAAGATACAAACA [XGTACX_site4464] | 7.09
ATTTATATGAAAATATGTACTTATATAAATTTATTT [XGTACX_site53] | 7.04
TATGGAACACACCTTAATATGTGATAAAATATGATA [GTGCAC_negctrl_site718] | 6.74
GTTATTAAATAATTCACACACATATATATATATATA [CACACA_site2260] | 9.61
TATTCCTATATACAGCGTACAAAAAATAATATGTAT [XGTACX_site8112] | 7.12
CGCAACGTGAAAATACGTACACATACATTTTTATAT [XGTACX_site330] | 7.03
AAATATTATGTACGCACACACATTTTTGATATATAA [CACACA_site7755] | 7.36
TAATCGTTTTATAAATGTACAAAATTGTTATGTTAT [XGTACX_site5147] | 6.93
GGGGGAAGGTTGAAGGTGCTTGATGGAGAAAAATAT | 9.43
TTAATACATACATTCACACACACTAAATGTATATTT [CACACA_site4105] | 6.99
AATAGGATATGGTACATTTTTTGTATACTTTTTGTT [CACACA_negctrl_site1804] | 6.74
AAACAAGTAATTGTTATTATTATTATATTATTATTA [CACACA_negctrl_site402] | 6.82
ATAAATTCTATGTATACACACATATATAATATATAT [CACACA_site2689] | 7.26
TTTTTTTTTTTTGAAGTGCATGTTACGATGAACAAA [GTGCAC_site9451] | 8.41
CTAAAAAGAGAAGTGTGTCCTCAAATTAATATAATT [XGTACX_site1057] | 6.84
TCTTATATAACGAAAGTAAAATAATATGCTAAGCAT [CACACA_negctrl_site668] | 6.72
AATGAATATTAAAGGAGTACACATAATAAGTAAGAA [XGTACX_site7354] | 7.77
TATATAAAAATATACACACACAAATGTATTTATATA [CACACA_site4284] | 6.88
GAAAAAAAAAAAAATACACACAAATTGGTATAGAAT [CACACA_site380] | 6.76
AAAATAGAGTTGAATGCACACATACAAATTTTTAGG [CACACA_site9188] | 7.47

Sequence | gcPBM binding intensity (ln)
ATAAATAATTTATTCACACATACAAAAGTTTACAAA [CACACA_site5666] | 7.16
TTATTAAATTCTTTATTTAGCATATACAATAAAAGA [CACACA_negctrl_site1420] | 6.8
CGTAAACGATATAAATGTACGAATATCTATATATTA [XGTACX_site8116] | 6.77
TATATATTGCCCTTCACACACACACCGATATATATA [CACACA_site5390] | 7.35
TATTTCATCTTTTAAGAAGGTACCCATATGTCATAT [GTGCAC_negctrl_site403] | 6.98
ATATATATATATATTTGTACTTACATTTTTATTTAT [XGTACX_site4551] | 8.98
AAAAATATAACCGTTACACACAAAATAATATGAGAA [CACACA_site3773] | 6.99
ATAATAAGGTTAAGCACACATATTACATATATAACT [CACACA_site3356] | 6.98
GAACGATATATTATATGTACATATATATATATATAT [XGTACX_site394] | 9.38
TCGTTTCATAATATTGTGCACATATATATTTACAAT | 9.14
ATATTTTATATAATAGTGCAAATAATATTAAATAAT | 8.4
ATTATAATATTTAATTGTACTTGTATTTATTCCAAA [XGTACX_site6417] | 6.89
TAATAAAAAGTTGAGGTGCATATAGAGTTCTTCTTT [GTGCAC_site9508] | 10
TGCCCTTTGGTTATAACACACATGCACCCGTAAATA [CACACA_site3842] | 11.9
CACATAAAATAAGGTGCATGCAAACGAGAAAATAAA [TGCATGCA_site75] | 11
AAAAAAAATATATTACAAAACTTAGGATCCTAATAT [CACACA_negctrl_site470] | 6.8
AATAAATATATTAAAAGTACACAAATATTATTTAAT [XGTACX_site2482] | 7.09
AAGATTAAACATTGCACACAAAAACATATTTTCTAT [CACACA_site530] | 7.08
ATATATATATAATAATGTACTTATAATAGATGTGTA [XGTACX_site4677] | 8.55
AATATATAAGCTGTTCTATTCAAGAATTATATCTTA [CACACA_negctrl_site270] | 6.76
CAAAGGAAACCTATCTGTACACATATTGGGGGAAAA [XGTACX_site3502] | 7.3
AGAAGATTAAACATTGCACACAAAAACATATTTTCT [CACACA_site8072] | 6.88
AAAGGGACATATATATCACACACAAAAATTAGTCCC [CACACA_site8897] | 6.9

Sequence | gcPBM binding intensity (ln)
TAATATCTACATATATGTACATATATATATATATAT [XGTACX_site7979] | 9.31
TTATATATGTATTAATGTACATAGTTGAGAAAGGTA [XGTACX_site1511] | 7.48
GGAAGCTAATTACACACATGCATATTTTTTTTTCAA [TGCATGCA_site548] | 7.04
ATAATATAGAACAATACATGCAAATGGCTTAAATTT [TGCATGCA_site521] | 6.9
ATGGGACAGATATATACACACATATAAATATAAATA [CACACA_site6684] | 6.99
TATGTTAAAAAAAAATGTACATATGTTTTTGTTAAA [XGTACX_site4754] | 6.86
AAATGAATAATGATATACAAACAAATCATGTGTTAA [XGTACX_negctrl_site150] | 6.55
GACCCATTATTTTATTGTACTTTTATTATAACGTGA [XGTACX_site156] | 7.33
ATACATTCAAAATATACACACATATATATATAATAT [CACACA_site950] | 7.13
TTTCCCCCATATAATGAACACACACCCTCCTCATAA [CACACA_site8110] | 7.83
ATGTGTGTATACATCAATTATATATATATTATGTAT [GTGCAC_negctrl_site720] | 7.08
AAAATAAAAATAACAACACACATATACTATAATATT [CACACA_site2769] | 6.98
CATTTCATTTCTTAATGTACTTTATTCCACCACATA [XGTACX_site5943] | 7.07
ATAAATATATGAAGTTGTACAAATAATTAACATTAT [XGTACX_site5740] | 6.97
AAATTAAATAAATTTACACACTAAAAATTACATATA [CACACA_site1054] | 6.88
ATTTTTTTTAATTTGTACAAATTTTGTTCACAATTT [CACACA_negctrl_site1301] | 6.99
TACCATGTTCAAATTACACACATATAATCTAATATA [CACACA_site2008] | 6.78
TCATATAATCAAATATGTACATATTTTCAATTGAAT [XGTACX_site6831] | 6.97
ATATAATTTGATGGTTAACACACATATATATTATAT [CACACA_site8775] | 7.04
TTATTTATTTTTTATACACACAATTATCTTTTTAAG [CACACA_site6162] | 6.93
